# Data reported in the supplement of paper PMC8728848.
# The list shows a part of the results.
# B1: TIM1 (protein)
# chain: ADGIQSVKVGGEAGPSVTLPCHYSGAVTSMCWNRGSCSLFTCQNGIVWTNGTHVTYRKDTRYKLLGDLSRRDVSLTIENTAVSDSGVYCCRVEHRGWFNDMKITVSLEIVPPHHHHHH
# Experiments:
# Test in all cases: glycan array binding signal (z-score within array); higher = stronger binding
# Conditions in all cases: glycan notation: IUPAC condensed, linker removed
# [1] = target: Gal(a1-3)Gal(b1-4)GlcNAc(b1-2)Man
# How it was run: (§1)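 Glycan array data came from 3228 arrays in the Consortium for Functional Glycomics database, and only arrays with an available protein sequence were kept. Glycan names were put into IUPAC-condensed notation, and columns mapping to the same glycan were averaged. The binding signal is a within-array Z-score, averaged across arrays of one protein sequence run at different concentrations or buffers and across linkers. A negative Z-score can be read as non-binding.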
# [2] = target: Gal(a1-3)Gal(b1-4)GlcNAc(b1-2)Man(a1-3)[Gal(a1-3)Gal(b1-4)GlcNAc(b1-2)Man(a1-6)]Man(b1-4)GlcNAc(b1-4)GlcNAc
# How it was run: as §1
# [3] = target: Gal(a1-3)Gal(b1-4)GlcNAc(b1-3)GalNAc
# How it was run: as §1
# [4] = target: Gal(a1-3)Gal(b1-4)GlcNAc(b1-6)GalNAc
# How it was run: as §1
# [5] = target: Gal(a1-3)Gal(b1-4)[Fuc(a1-3)]GlcNAc
# How it was run: as §1
# [6] = target: Gal(a1-3)Gal(b1-4)[Fuc(a1-3)]GlcNAc(b1-2)Man(a1-3)[Gal(a1-3)Gal(b1-4)[Fuc(a1-3)]GlcNAc(b1-2)Man(a1-6)]Man(b1-4)GlcNAc(b1-4)GlcNAc
# How it was run: as §1
# Gal(a1-3)GalNAc = target: Gal(a1-3)GalNAc
# How it was run: as §1
# [7] = target: Gal(a1-3)[Gal(a1-4)]Gal(b1-4)GlcNAc
# How it was run: as §1
# [8] = target: Gal(a1-4)Gal(b1-3)GlcNAc(b1-2)Man(a1-3)[Gal(a1-4)Gal(b1-3)GlcNAc(b1-2)Man(a1-6)]Man(b1-4)GlcNAc(b1-4)GlcNAc
# How it was run: as §1
# Gal(a1-4)Gal(b1-4)Glc = target: Gal(a1-4)Gal(b1-4)Glc
# How it was run: as §1
# Gal(a1-4)Gal(b1-4)GlcNAc = target: Gal(a1-4)Gal(b1-4)GlcNAc
# How it was run: as §1
# [9] = target: Gal(a1-4)Gal(b1-4)GlcNAc(b1-2)Man(a1-3)[Gal(a1-4)Gal(b1-4)GlcNAc(b1-2)Man(a1-6)]Man(b1-4)GlcNAc(b1-4)GlcNAc
# How it was run: as §1
# [10] = target: Gal(a1-4)Gal(b1-4)GlcNAc(b1-3)Gal(b1-4)Glc
# How it was run: as §1
# Gal(a1-4)GlcNAc = target: Gal(a1-4)GlcNAc
# How it was run: as §1
# Gal(a1-6)Glc = target: Gal(a1-6)Glc
# How it was run: as §1
# Gal(b1-2)Gal = target: Gal(b1-2)Gal
# How it was run: as §1
# Gal(b1-3)Gal = target: Gal(b1-3)Gal
# How it was run: as §1
# Gal(b1-3)Gal(b1-4)GlcNAc = target: Gal(b1-3)Gal(b1-4)GlcNAc
# How it was run: as §1
# Gal(b1-3)GalNAc = target: Gal(b1-3)GalNAc
# How it was run: as §1
# [11] = target: Gal(b1-3)GalNAc(a1-3)[Fuc(a1-2)]Gal(b1-4)Glc
# How it was run: as §1
# [12] = target: Gal(b1-3)GalNAc(a1-3)[Fuc(a1-2)]Gal(b1-4)GlcNAc
# How it was run: as §1
# Gal(b1-3)GalNAc(b1-3)Gal = target: Gal(b1-3)GalNAc(b1-3)Gal
# How it was run: as §1
# [13] = target: Gal(b1-3)GalNAc(b1-3)Gal(a1-4)Gal(b1-4)Glc
# How it was run: as §1
# [14] = target: Gal(b1-3)GalNAc(b1-4)Gal(b1-4)Glc
# How it was run: as §1
# [15] = target: Gal(b1-3)GalNAc(b1-4)[Neu5Ac(a2-3)]Gal(b1-4)Glc
# How it was run: as §1
# Gal(b1-3)GlcNAc = target: Gal(b1-3)GlcNAc
# How it was run: as §1
# [16] = target: Gal(b1-3)GlcNAc(a1-3)Gal(b1-4)GlcNAc
# How it was run: as §1
# [17] = target: Gal(b1-3)GlcNAc(a1-6)Gal(b1-4)GlcNAc
# How it was run: as §1
# Gal(b1-3)GlcNAc(b1-2)Man = target: Gal(b1-3)GlcNAc(b1-2)Man
# How it was run: as §1
# [18] = target: Gal(b1-3)GlcNAc(b1-2)Man(a1-3)[Gal(b1-3)GlcNAc(b1-2)Man(a1-6)]Man(b1-4)GlcNAc(b1-4)GlcNAc
# How it was run: as §1
# [19] = target: Gal(b1-3)GlcNAc(b1-2)Man(a1-3)[Gal(b1-3)GlcNAc(b1-2)Man(a1-6)]Man(b1-4)GlcNAc(b1-4)[Fuc(a1-6)]GlcNAc
# How it was run: as §1
# [20] = target: Gal(b1-3)GlcNAc(b1-2)Man(a1-3)[GlcNAc(b1-4)][Gal(b1-3)GlcNAc(b1-2)Man(a1-6)]Man(b1-4)GlcNAc(b1-4)GlcNAc
# How it was run: as §1
# [21] = target: Gal(b1-3)GlcNAc(b1-2)[Gal(b1-3)GlcNAc(b1-6)]Man(a1-6)[Gal(b1-3)GlcNAc(b1-2)Man(a1-3)]Man(b1-4)GlcNAc(b1-4)GlcNAc
# How it was run: as §1
# [22] = target: Gal(b1-3)GlcNAc(b1-3)Gal(b1-3)GlcNAc
# How it was run: as §1
# [23] = target: Gal(b1-3)GlcNAc(b1-3)Gal(b1-4)Glc
# How it was run: as §1
# [24] = target: Gal(b1-3)GlcNAc(b1-3)Gal(b1-4)GlcNAc
# How it was run: as §1
# [25] = target: Gal(b1-3)GlcNAc(b1-3)Gal(b1-4)GlcNAc(b1-2)Man(a1-3)[Gal(b1-3)GlcNAc(b1-3)Gal(b1-4)GlcNAc(b1-2)Man(a1-6)]Man(b1-4)GlcNAc(b1-4)GlcNAc
# How it was run: as §1
# [26] = target: Gal(b1-3)GlcNAc(b1-3)Gal(b1-4)GlcNAc(b1-2)[Gal(b1-3)GlcNAc(b1-3)Gal(b1-4)GlcNAc(b1-6)]Man(a1-6)[Gal(b1-3)GlcNAc(b1-3)Gal(b1-4)GlcNAc(b1-2)Man(a1-3)]Man(b1-4)GlcNAc(b1-4)[Fuc(a1-6)]GlcNAc
# How it was run: as §1
# [27] = target: Gal(b1-3)GlcNAc(b1-3)Gal(b1-4)GlcNAc(b1-3)Gal(b1-4)GlcNAc(b1-2)[Gal(b1-3)GlcNAc(b1-3)Gal(b1-4)GlcNAc(b1-3)Gal(b1-4)GlcNAc(b1-6)]Man(a1-6)[Gal(b1-3)GlcNAc(b1-3)Gal(b1-4)GlcNAc(b1-3)Gal(b1-4)GlcNAc(b1-2)Man(a1-3)]Man(b1-4)GlcNAc(b1-4)[Fuc(a1-6)]GlcNAc
# How it was run: as §1
# [28] = target: Gal(b1-3)GlcNAc(b1-3)Gal(b1-4)GlcNAc(b1-6)[Gal(b1-3)GlcNAc(b1-3)]Gal(b1-4)Glc
# How it was run: as §1
# [29] = target: Gal(b1-3)GlcNAc(b1-3)Gal(b1-4)[Fuc(a1-3)]GlcNAc
# How it was run: as §1
# [30] = target: Gal(b1-3)GlcNAc(b1-3)Gal(b1-4)[Fuc(a1-3)]GlcNAc(b1-6)[Gal(b1-3)GlcNAc(b1-3)]Gal(b1-4)Glc
# How it was run: as §1
# [31] = target: Gal(b1-3)GlcNAc(b1-3)GalNAc
# How it was run: as §1
# [32] = target: Gal(b1-3)GlcNAc(b1-6)Gal(b1-4)GlcNAc
# How it was run: as §1
# [33] = target: Gal(b1-3)GlcNAc(b1-6)GalNAc
# How it was run: as §1
binder,measurement,setting,value
B1,glycan array binding signal (z-score),[1],-0.212
same,glycan array binding signal (z-score),[2],0.343
same,glycan array binding signal (z-score),[3],-0.256
same,glycan array binding signal (z-score),[4],-0.141
same,glycan array binding signal (z-score),[5],-0.177
same,glycan array binding signal (z-score),[6],-0.138
same,glycan array binding signal (z-score),Gal(a1-3)GalNAc,0.025
same,glycan array binding signal (z-score),[7],0.219
same,glycan array binding signal (z-score),[8],-0.248
same,glycan array binding signal (z-score),Gal(a1-4)Gal(b1-4)Glc,-0.049
same,glycan array binding signal (z-score),Gal(a1-4)Gal(b1-4)GlcNAc,-0.2
same,glycan array binding signal (z-score),[9],-0.176
same,glycan array binding signal (z-score),[10],-0.138
same,glycan array binding signal (z-score),Gal(a1-4)GlcNAc,-0.169
same,glycan array binding signal (z-score),Gal(a1-6)Glc,-0.145
same,glycan array binding signal (z-score),Gal(b1-2)Gal,-0.144
same,glycan array binding signal (z-score),Gal(b1-3)Gal,-0.226
same,glycan array binding signal (z-score),Gal(b1-3)Gal(b1-4)GlcNAc,-0.26
same,glycan array binding signal (z-score),Gal(b1-3)GalNAc,-0.197
same,glycan array binding signal (z-score),[11],-0.191
same,glycan array binding signal (z-score),[12],-0.255
same,glycan array binding signal (z-score),Gal(b1-3)GalNAc(b1-3)Gal,-0.176
same,glycan array binding signal (z-score),[13],-0.23
same,glycan array binding signal (z-score),[14],-0.095
same,glycan array binding signal (z-score),[15],-0.226
same,glycan array binding signal (z-score),Gal(b1-3)GlcNAc,-0.229
same,glycan array binding signal (z-score),[16],-0.21
same,glycan array binding signal (z-score),[17],-0.213
same,glycan array binding signal (z-score),Gal(b1-3)GlcNAc(b1-2)Man,-0.147
same,glycan array binding signal (z-score),[18],-0.172
same,glycan array binding signal (z-score),[19],-0.048
same,glycan array binding signal (z-score),[20],-0.097
same,glycan array binding signal (z-score),[21],-0.186
same,glycan array binding signal (z-score),[22],-0.191
same,glycan array binding signal (z-score),[23],-0.231
same,glycan array binding signal (z-score),[24],-0.272
same,glycan array binding signal (z-score),[25],-0.185
same,glycan array binding signal (z-score),[26],0.883
same,glycan array binding signal (z-score),[27],0.247
same,glycan array binding signal (z-score),[28],-0.228
same,glycan array binding signal (z-score),[29],-0.24
same,glycan array binding signal (z-score),[30],-0.275
same,glycan array binding signal (z-score),[31],-0.16
same,glycan array binding signal (z-score),[32],-0.276
same,glycan array binding signal (z-score),[33],-0.211
